Measurements taken from US9994616B2, “c-Met protein agonist” (The University of Tokyo, priority 2013, dated 2018).
pKd: −log10 of the molar value. Part of at least one peptide drawing is inferred or uncertain, most often the ends. For at least one compound, name, drawing or mass did not settle the structure. Where a SMILES comes first, the peptide text is derived from it. Bridges are numbered along the chain shown (N, C = ends). [ ]: non-standard residue; d: D form. NMeW = CN[C@@H](Cc1c[nH]c2ccccc12)C(=O)O; NMeR = CN[C@@H](CCCNC(=N)N)C(=O)O; NMeT = CN[C@H](C(=O)O)[C@@H](C)O; NMeD = CN[C@@H](CC(=O)O)C(=O)O; NMeN = CN[C@@H](CC(N)=O)C(=O)O; NMeV = CN[C@H](C(=O)O)C(C)C; NMeC = CN[C@@H](CS)C(=O)O

Key:
[1] = target: T1, c-Met (Homo sapiens, UniProt P08581); assay: Activity of dimeric peptide by ELISA (c-Met phosphorylation level in EHMES-1 cells); assay type: cell-based; settings: Table 13
T1 construct: endogenous in cells; host or cells: EHMES-1 (human mesothelioma)
Experimental: Each dimeric peptide was added to human EHMES-1 cells and the mixture was incubated for 10 minutes to stimulate the cells.
As a control experiment, a recombinant human HGF protein was added and the mixture was incubated for 10 minutes to stimulate cells.
A phosphorylation level of c-Met was quantitatively analyzed using ELISA.

[2] = target: c-Met-Fc (Homo sapiens, UniProt P08581); assay: Binding ability by surface plasmon resonance (SPR, Biacore)
Experimental: Binding ability of the thioether macrocyclic peptide was evaluated by SPR measurement using Biacore (GE Healthcare).
As a sensor chip, Sensor Chip CM5 was used and an anti-IgG antibody was immobilized on a measurement lane and a control lane by using Human Antibody Capture Kit.
On the measurement lane was immobilized c-Met-Fc, while on the control lane was immobilized Fc protein.
As a running buffer, HBS-EP+ buffer containing 0.1% DMSO was used and a dissociation constant of the thioether macrocyclic peptide was calculated at 5 different concentrations by using the single-kinetics method.

[3] = system: human Hcc-827 cells; assay: Cell growth of Iressa-inhibited Hcc-827 cells (MTS assay); assay type: cell-based; settings: Table 13, Hcc-827 cells inhibited by Iressa
Experimental: Dimeric peptides were added to human Hcc-827 cells whose cell growth was inhibited by the addition of Iressa and the resulting mixture was cultured to activate the cell growth ability via a c-Met signaling pathway. The cell count of the thus-cultured cells was quantitatively determined by the assay using MTS (3-(4,5-dimethylthiazol-2-yl)-5-(3carboxymethoxyphenyl)-2-(4-sulphophenyl)-2H-tetrazolium, inner salt).

[4] = Table 11, monomer and dimeric peptides

Chain of c-Met-Fc (P08581 with tags, fused parts or gaps limits assumed): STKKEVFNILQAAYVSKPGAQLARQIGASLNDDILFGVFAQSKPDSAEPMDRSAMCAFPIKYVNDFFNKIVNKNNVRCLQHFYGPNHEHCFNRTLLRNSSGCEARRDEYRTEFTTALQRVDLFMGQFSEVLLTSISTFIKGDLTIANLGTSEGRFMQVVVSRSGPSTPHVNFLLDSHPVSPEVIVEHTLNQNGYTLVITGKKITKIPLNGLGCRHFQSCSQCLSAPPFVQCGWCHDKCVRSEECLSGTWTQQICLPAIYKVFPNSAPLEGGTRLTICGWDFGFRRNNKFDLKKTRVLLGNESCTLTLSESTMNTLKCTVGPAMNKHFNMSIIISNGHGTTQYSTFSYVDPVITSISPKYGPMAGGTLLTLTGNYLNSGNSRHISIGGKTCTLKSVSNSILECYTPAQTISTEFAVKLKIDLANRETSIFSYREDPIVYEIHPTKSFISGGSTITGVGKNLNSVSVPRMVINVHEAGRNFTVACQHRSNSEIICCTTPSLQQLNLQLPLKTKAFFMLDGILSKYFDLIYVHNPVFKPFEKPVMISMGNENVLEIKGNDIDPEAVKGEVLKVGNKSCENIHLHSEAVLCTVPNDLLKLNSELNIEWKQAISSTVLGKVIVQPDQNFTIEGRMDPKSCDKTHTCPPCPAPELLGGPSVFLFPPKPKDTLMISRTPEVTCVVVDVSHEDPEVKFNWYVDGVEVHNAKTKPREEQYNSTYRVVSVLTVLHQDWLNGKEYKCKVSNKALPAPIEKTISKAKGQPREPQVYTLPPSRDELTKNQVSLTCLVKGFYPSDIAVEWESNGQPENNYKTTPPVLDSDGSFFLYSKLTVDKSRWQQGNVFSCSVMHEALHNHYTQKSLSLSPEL
Chain of c-Met-Fc (P08581 25-307 limits assumed): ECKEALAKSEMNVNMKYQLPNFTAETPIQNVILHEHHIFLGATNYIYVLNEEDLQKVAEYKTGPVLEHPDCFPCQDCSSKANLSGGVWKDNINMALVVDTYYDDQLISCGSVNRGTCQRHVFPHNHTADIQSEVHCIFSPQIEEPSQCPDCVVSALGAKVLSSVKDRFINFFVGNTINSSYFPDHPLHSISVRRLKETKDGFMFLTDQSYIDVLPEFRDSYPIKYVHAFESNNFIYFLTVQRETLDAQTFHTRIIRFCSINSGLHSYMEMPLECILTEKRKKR
T1 sequence (P08581 25-1390): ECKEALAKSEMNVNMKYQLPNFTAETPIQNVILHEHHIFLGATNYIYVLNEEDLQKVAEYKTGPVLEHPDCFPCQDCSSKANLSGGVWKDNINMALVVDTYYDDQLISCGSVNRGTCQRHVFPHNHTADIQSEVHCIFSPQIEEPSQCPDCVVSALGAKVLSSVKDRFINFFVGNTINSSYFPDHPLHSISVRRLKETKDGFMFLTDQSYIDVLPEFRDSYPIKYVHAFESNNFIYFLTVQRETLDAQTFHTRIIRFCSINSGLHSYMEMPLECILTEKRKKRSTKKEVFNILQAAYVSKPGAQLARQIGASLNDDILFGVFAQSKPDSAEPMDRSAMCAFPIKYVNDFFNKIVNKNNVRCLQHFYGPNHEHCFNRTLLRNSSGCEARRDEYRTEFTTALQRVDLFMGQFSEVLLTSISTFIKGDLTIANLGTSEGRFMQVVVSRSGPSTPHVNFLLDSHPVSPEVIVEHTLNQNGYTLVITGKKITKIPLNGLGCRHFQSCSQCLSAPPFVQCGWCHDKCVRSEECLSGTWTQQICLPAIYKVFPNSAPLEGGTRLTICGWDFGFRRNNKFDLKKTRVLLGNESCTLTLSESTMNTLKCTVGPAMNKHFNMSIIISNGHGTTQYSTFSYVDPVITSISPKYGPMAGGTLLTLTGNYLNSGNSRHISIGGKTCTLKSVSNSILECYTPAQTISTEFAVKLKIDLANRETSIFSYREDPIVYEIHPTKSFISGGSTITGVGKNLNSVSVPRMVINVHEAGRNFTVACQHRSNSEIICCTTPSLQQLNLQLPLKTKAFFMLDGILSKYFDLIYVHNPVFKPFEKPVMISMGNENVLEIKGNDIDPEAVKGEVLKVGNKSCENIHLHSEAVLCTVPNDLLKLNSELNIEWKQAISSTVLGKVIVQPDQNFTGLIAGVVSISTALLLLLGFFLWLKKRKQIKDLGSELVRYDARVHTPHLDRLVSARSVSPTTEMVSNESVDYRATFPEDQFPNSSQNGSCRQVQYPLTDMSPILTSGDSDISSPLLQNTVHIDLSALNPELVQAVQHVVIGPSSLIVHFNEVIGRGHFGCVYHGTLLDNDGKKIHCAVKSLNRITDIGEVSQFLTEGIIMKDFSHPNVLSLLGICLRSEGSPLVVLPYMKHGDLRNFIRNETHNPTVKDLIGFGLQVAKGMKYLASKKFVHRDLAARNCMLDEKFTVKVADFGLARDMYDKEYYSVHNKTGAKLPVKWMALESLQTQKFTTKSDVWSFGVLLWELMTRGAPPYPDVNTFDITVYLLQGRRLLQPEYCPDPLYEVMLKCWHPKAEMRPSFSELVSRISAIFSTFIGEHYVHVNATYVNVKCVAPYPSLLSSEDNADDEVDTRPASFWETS

| SMILES | c-Met phosphorylation [1] | kd ([2]; Table 10, c-Met-Fc) | ka [2, 4] | kd [2, 4] | pKd ([2]; Table 8, c-Met-Fc) | kd ([2]; Table 8, c-Met-Fc) | other results |
| --- | --- | --- | --- | --- | --- | --- | --- |
| CC(C)C[C@@H]1NC(=O)[C@H](CC(N)=O)NC(=O)[C@H](Cc2c[nH]c3ccccc23)NC(=O)[C@H](C(C)C)NC(=O)[C@H](CCC(=O)O)NC(=O)[C@H](Cc2c[nH]cn2)NC(=O)[C@H]([C@@H](C)O)NC(=O)[C@H](CCCNC(=N)N)NC(=O)[C@H](CCCNC(=N)N)N(C)C(=O)[C@H](CC(N)=O)NC(=O)[C@H](Cc2ccccc2)NC(=O)[C@H](CCC(N)=O)NC(=O)[C@H](CCCNC(=N)N)NC(=O)[C@@H](Cc2ccc(O)cc2)NC(=O)CSC[C@@H](C(=O)NCC(N)=O)N(C)C(=O)[C@H](CC(=O)O)NC1=O [Peptide D4-3NMe] ({CH2CO}-[dY]RQFN[NMeR]RTHEVWNLD[NMeC]G-NH2; thioether N-16) | Not promote | 0.21 10^−2 s^−1 | 0.39 10^6 M^−1s^−1 | 0.21 10^−2 s^−1 | – | – | Binding ability (in words) [2]: considerably excellent; kd ([2]; Table 9, c-Met-Fc): 0.21 10^−2s^−1; ka ([2]; Table 10, c-Met-Fc): 0.39 10^6 M^−1s^−1 |
| CC(C)C[C@@H]1NC(=O)[C@H](CC(N)=O)NC(=O)[C@H](Cc2c[nH]c3ccccc23)NC(=O)[C@H](C(C)C)NC(=O)[C@H](CCC(=O)O)NC(=O)[C@H](Cc2c[nH]cn2)NC(=O)[C@H]([C@@H](C)O)NC(=O)[C@H](CCCNC(=N)N)NC(=O)[C@H](CCCNC(=N)N)NC(=O)[C@H](CC(N)=O)NC(=O)[C@H](Cc2ccccc2)NC(=O)[C@H](CCC(N)=O)NC(=O)[C@H](CCCNC(=N)N)NC(=O)[C@@H](Cc2ccc(O)cc2)NC(=O)CSC[C@@H](C(=O)NCC(N)=O)NC(=O)[C@H](CC(=O)O)NC1=O [Peptide D4-3] ({CH2CO}-[dY]RQFNRRTHEVWNLDCG-NH2; thioether N-16; N-terminus and C-terminus assumed) | Not promote | 0.80 10^−2 s^−1 | 2.4 10^6 M^−1s^−1 | 0.80 10^−2 s^−1 | 8.07 | 1.1 10^−2 s^−1 | Cell growth [3]: Not activate; pKd ([2]; Table 9, c-Met-Fc): 8.07; ka ([2]; Table 9, c-Met-Fc): 13 10^5 M^−1s^−1; kd ([2]; Table 9, c-Met-Fc): 1.1 10^−2s^−1; pKd ([2]; Table 10, c-Met-Fc): 8.47; pKd [2, 4]: 8.47 |
| C[C@@H]1NC(=O)[C@H](Cc2ccc(O)cc2)NC(=O)[C@H](Cc2ccc(O)cc2)NC(=O)[C@H](Cc2c[nH]c3ccccc23)NC(=O)[C@@H](Cc2ccc(O)cc2)NC(=O)CSC[C@@H](C(=O)NCC(N)=O)NC(=O)[C@@H]2CCCN2C(=O)[C@H](Cc2ccccc2)NC(=O)[C@H](C)NC(=O)[C@H](CCCCN)NC(=O)[C@H](Cc2ccc(O)cc2)NC(=O)[C@H]([C@@H](C)O)NC(=O)[C@H](CCC(N)=O)NC(=O)[C@H](CC(=O)O)NC(=O)[C@H](Cc2c[nH]c3ccccc23)NC1=O [Peptide D5-4] ({CH2CO}-[dY]WYYAWDQTYKAFPCG-NH2; thioether N-15) | Not promote | 2.1 10^−2 s^−1 | 4.5 10^6 M^−1s^−1 | 2.1 10^−2 s^−1 | – | – | Cell growth [3]: Not activate |
| CC[C@H](C)[C@@H]1NC(=O)[C@H](Cc2ccc(O)cc2)NC(=O)CSC[C@@H](C(=O)NCC(N)=O)NC(=O)[C@H]([C@@H](C)O)NC(=O)[C@H]([C@@H](C)CC)NC(=O)[C@H](Cc2ccccc2)NC(=O)[C@H](CCCNC(=N)N)NC(=O)[C@H](Cc2c[nH]c3ccccc23)NC(=O)[C@H](CC(N)=O)NC(=O)[C@@H]2CCCN2C(=O)[C@H](CO)NC(=O)[C@H](CC(N)=O)NC(=O)[C@H](Cc2ccccc2)NC(=O)[C@H](CCC(=O)O)NC(=O)[C@H](CC(N)=O)NC(=O)[C@H](Cc2c[nH]c3ccccc23)NC(=O)[C@H](CO)NC1=O [Peptide L5-2] ({CH2CO}-YISWNEFNSPNWRFITCG-NH2; thioether N-17) | Not promote | 1.2 10^−2 s^−1 | 2.3 10^6 M^−1s^−1 | 1.2 10^−2 s^−1 | – | – | Cell growth [3]: Not activate |
| CC(C)C[C@@H]1NC(=O)[C@H](CC(N)=O)NC(=O)[C@H](Cc2c[nH]c3ccccc23)NC(=O)[C@H](C(C)C)NC(=O)[C@H](CCC(=O)O)NC(=O)[C@H](Cc2c[nH]cn2)NC(=O)[C@H]([C@@H](C)O)NC(=O)[C@H](CCCNC(=N)N)NC(=O)[C@H](CCCNC(=N)N)N(C)C(=O)[C@H](CC(N)=O)NC(=O)[C@H](Cc2ccccc2)NC(=O)[C@H](CCC(N)=O)NC(=O)[C@H](CCCNC(=N)N)NC(=O)[C@@H](Cc2ccc(O)cc2)NC(=O)CSC[C@@H](C(=O)NCC(N)=O)NC(=O)[C@H](CC(=O)O)NC1=O [Peptide N6] ({CH2CO}-[dY]RQFN[NMeR]RTHEVWNLDCG-NH2; thioether N-16; C-terminus assumed) | – | – | – | – | 7.47 | – | pKd ([2]; Table 9, c-Met-Fc): 7.47 |
| CC(C)C[C@@H]1NC(=O)[C@H](CC(N)=O)NC(=O)[C@H](Cc2c[nH]c3ccccc23)NC(=O)[C@H](C(C)C)NC(=O)[C@H](CCC(=O)O)NC(=O)[C@H](Cc2c[nH]cn2)NC(=O)[C@H]([C@@H](C)O)N(C)C(=O)[C@H](CCCNC(=N)N)NC(=O)[C@H](CCCNC(=N)N)NC(=O)[C@H](CC(N)=O)NC(=O)[C@H](Cc2ccccc2)NC(=O)[C@H](CCC(N)=O)NC(=O)[C@H](CCCNC(=N)N)NC(=O)[C@@H](Cc2ccc(O)cc2)NC(=O)CSC[C@@H](C(=O)NCC(N)=O)NC(=O)[C@H](CC(=O)O)NC1=O [Peptide N8] ({CH2CO}-[dY]RQFNRR[NMeT]HEVWNLDCG-NH2; thioether N-16; C-terminus assumed) | – | – | – | – | – | 0.60 10^−2 s^−1 | Binding ability (in words) [2]: do not show marked deterioration |
| CC(C)C[C@@H]1NC(=O)[C@H](CC(N)=O)NC(=O)[C@H](Cc2c[nH]c3ccccc23)NC(=O)[C@H](C(C)C)N(C)C(=O)[C@H](CCC(=O)O)NC(=O)[C@H](Cc2c[nH]cn2)NC(=O)[C@H]([C@@H](C)O)NC(=O)[C@H](CCCNC(=N)N)NC(=O)[C@H](CCCNC(=N)N)NC(=O)[C@H](CC(N)=O)NC(=O)[C@H](Cc2ccccc2)NC(=O)[C@H](CCC(N)=O)NC(=O)[C@H](CCCNC(=N)N)NC(=O)[C@@H](Cc2ccc(O)cc2)NC(=O)CSC[C@@H](C(=O)NCC(N)=O)NC(=O)[C@H](CC(=O)O)NC1=O [Peptide N11] ({CH2CO}-[dY]RQFNRRTHE[NMeV]WNLDCG-NH2; thioether N-16; C-terminus assumed) | – | – | – | – | – | 0.51 10^−2 s^−1 | – |
| CC(C)C[C@@H]1NC(=O)[C@H](CC(N)=O)NC(=O)[C@H](Cc2c[nH]c3ccccc23)N(C)C(=O)[C@H](C(C)C)NC(=O)[C@H](CCC(=O)O)NC(=O)[C@H](Cc2c[nH]cn2)NC(=O)[C@H]([C@@H](C)O)NC(=O)[C@H](CCCNC(=N)N)NC(=O)[C@H](CCCNC(=N)N)NC(=O)[C@H](CC(N)=O)NC(=O)[C@H](Cc2ccccc2)NC(=O)[C@H](CCC(N)=O)NC(=O)[C@H](CCCNC(=N)N)NC(=O)[C@@H](Cc2ccc(O)cc2)NC(=O)CSC[C@@H](C(=O)NCC(N)=O)NC(=O)[C@H](CC(=O)O)NC1=O [Peptide N12] ({CH2CO}-[dY]RQFNRRTHEV[NMeW]NLDCG-NH2; thioether N-16; C-terminus assumed) | – | – | – | – | 6.80 | 0.86 10^−2 s^−1 | – |
| CC(C)C[C@@H]1NC(=O)[C@H](CC(N)=O)N(C)C(=O)[C@H](Cc2c[nH]c3ccccc23)NC(=O)[C@H](C(C)C)NC(=O)[C@H](CCC(=O)O)NC(=O)[C@H](Cc2c[nH]cn2)NC(=O)[C@H]([C@@H](C)O)NC(=O)[C@H](CCCNC(=N)N)NC(=O)[C@H](CCCNC(=N)N)NC(=O)[C@H](CC(N)=O)NC(=O)[C@H](Cc2ccccc2)NC(=O)[C@H](CCC(N)=O)NC(=O)[C@H](CCCNC(=N)N)NC(=O)[C@@H](Cc2ccc(O)cc2)NC(=O)CSC[C@@H](C(=O)NCC(N)=O)NC(=O)[C@H](CC(=O)O)NC1=O [Peptide N13] ({CH2CO}-[dY]RQFNRRTHEVW[NMeN]LDCG-NH2; thioether N-16; C-terminus assumed) | – | – | – | – | – | 0.26 10^−2 s^−1 | – |
| CC(C)C[C@@H]1NC(=O)[C@H](CC(N)=O)NC(=O)[C@H](Cc2c[nH]c3ccccc23)NC(=O)[C@H](C(C)C)NC(=O)[C@H](CCC(=O)O)NC(=O)[C@H](Cc2c[nH]cn2)NC(=O)[C@H]([C@@H](C)O)NC(=O)[C@H](CCCNC(=N)N)NC(=O)[C@H](CCCNC(=N)N)NC(=O)[C@H](CC(N)=O)NC(=O)[C@H](Cc2ccccc2)NC(=O)[C@H](CCC(N)=O)NC(=O)[C@H](CCCNC(=N)N)NC(=O)[C@@H](Cc2ccc(O)cc2)NC(=O)CSC[C@@H](C(=O)NCC(N)=O)NC(=O)[C@H](CC(=O)O)N(C)C1=O [Peptide N15] ({CH2CO}-[dY]RQFNRRTHEVWNL[NMeD]CG-NH2; thioether N-16; C-terminus assumed) | – | – | – | – | 6.80 | 4.6 10^−2 s^−1 | – |
| CC(C)C[C@@H]1NC(=O)[C@H](CC(N)=O)NC(=O)[C@H](Cc2c[nH]c3ccccc23)NC(=O)[C@H](C(C)C)NC(=O)[C@H](CCC(=O)O)NC(=O)[C@H](Cc2c[nH]cn2)NC(=O)[C@H]([C@@H](C)O)NC(=O)[C@H](CCCNC(=N)N)NC(=O)[C@H](CCCNC(=N)N)NC(=O)[C@H](CC(N)=O)NC(=O)[C@H](Cc2ccccc2)NC(=O)[C@H](CCC(N)=O)NC(=O)[C@H](CCCNC(=N)N)NC(=O)[C@@H](Cc2ccc(O)cc2)NC(=O)CSC[C@@H](C(=O)NCC(N)=O)N(C)C(=O)[C@H](CC(=O)O)NC1=O [Peptide N16] ({CH2CO}-[dY]RQFNRRTHEVWNLD[NMeC]G-NH2; thioether N-16; C-terminus assumed) | – | – | – | – | 8.00 | – | pKd ([2]; Table 9, c-Met-Fc): 8.00 |
